Experimental data reported in the supplement of paper PMC10126150.
Values marked as one replicate rest on one cluster of the flow cell; about a third of the high ones do not repeat.

The sequences below were run on ATP (assay: switch fluorescence ratio, 500 uM ATP over buffer (Cy3 cluster intensity, sum of 5 cycles each) (fold (ratio)); higher = stronger signal-on switching upon ATP binding; sequences stand for … in TCGTCGGCAGCGTCAGATGTGTATAAGAGACAGTTTTTTTTTTTTTTTTTTTTTTTTT…TC). Settings: aptamer strand: ATP DNA aptamer (quencher-CACCTGGGGGAGTATTGCGGAGGAAGG + anchor), 100 nM annealed; ATP concentration: 500 uM; one replicate.
How it was run: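 Imaging in selection buffer was followed by imaging after 15 min with 500 uM ATP at 22 °C, for Cy3-labelled switching-strand clusters annealed to 100 nM quencher-labelled ATP aptamer on a modified Illumina MiSeq flow-cell. Five of these buffer/ATP cycles ran, separated by NaOH stripping and re-annealing. The fluorescence ratio per cluster is summed target-cycle over summed buffer-cycle Cy3 intensity, averaged per switch-domain sequence; clusters outside 100-1000 RFU were removed.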
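Also: ATP exposure 15 min at 22 °C before imaging.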

**Q.** For AGGGAAACTT, which switch fluorescence ratio is on record?
**A.** 1.02

**Q.** GGAGTTTCAA was tested. Which switch fluorescence ratio did it give?
**A.** 0.972

**Q.** How did the switch fluorescence ratio turn out when TAGAATCGT was run?
**A.** 0.983

**Q.** How did the switch fluorescence ratio turn out when GAGGCGATG was run?
**A.** 1.1

**Q.** With GTCAGGAGTA as the sequence, how does the switch fluorescence ratio read?
**A.** 0.965

**Q.** Which switch fluorescence ratio does the source give for ATTACCGCTG here?
**A.** 1.06

**Q.** Which switch fluorescence ratio does the source give for CCTATGTTGA here?
**A.** 1.04

**Q.** GATTGAGGAC was tested. Which switch fluorescence ratio did it give?
**A.** 0.955

**Q.** For TCGGATTGCT, which switch fluorescence ratio is on record?
**A.** 0.951

**Q.** How did the switch fluorescence ratio turn out when TAGCGGATAG was run?
**A.** 1.05

**Q.** How did the switch fluorescence ratio turn out when GAGCTGAATA was run?
**A.** 0.984

**Q.** Which switch fluorescence ratio does the source give for TTTTCGGAGG here?
**A.** 0.976

**Q.** How did the switch fluorescence ratio turn out when CAAACTACGA was run?
**A.** 1.06

**Q.** With CGCATCCCAT as the sequence, how does the switch fluorescence ratio read?
**A.** 1.24

**Q.** How did the switch fluorescence ratio turn out when AGGTTTTAGC was run?
**A.** 1.04

**Q.** With GAAAATATTC as the sequence, how does the switch fluorescence ratio read?
**A.** 1.03

**Q.** With GTAAGACATC as the sequence, how does the switch fluorescence ratio read?
**A.** 1.01

**Q.** For GTAAGGGTTT, which switch fluorescence ratio is on record?
**A.** 0.993

**Q.** TAACATAGGA was tested. Which switch fluorescence ratio did it give?
**A.** 1.01

**Q.** Which switch fluorescence ratio does the source give for GCCGAGACGT here?
**A.** 0.983

**Q.** How did the switch fluorescence ratio turn out when TGATATAACT was run?
**A.** 0.957

**Q.** With AGTTATAATA as the sequence, how does the switch fluorescence ratio read?
**A.** 0.998

**Q.** How did the switch fluorescence ratio turn out when TTCAGACATT was run?
**A.** 1.01

**Q.** Which switch fluorescence ratio does the source give for CATTGAAGGC here?
**A.** 0.986

**Q.** For CTGTAGTGCA, which switch fluorescence ratio is on record?
**A.** 1.08

**Q.** For TGCGTAAACG, which switch fluorescence ratio is on record?
**A.** 1.07

**Q.** With AAAGGCATTA as the sequence, how does the switch fluorescence ratio read?
**A.** 0.989

**Q.** How did the switch fluorescence ratio turn out when CAGACGAGGG was run?
**A.** 0.954

**Q.** For GGGTCATCCG, which switch fluorescence ratio is on record?
**A.** 1.01

**Q.** For TCGCGGGTCT, which switch fluorescence ratio is on record?
**A.** 1.06

**Q.** For GAGTGCGGCC, which switch fluorescence ratio is on record?
**A.** 1.04

**Q.** With ACGCTCAC as the sequence, how does the switch fluorescence ratio read?
**A.** 2.13

**Q.** With CTTAGCGCTC as the sequence, how does the switch fluorescence ratio read?
**A.** 0.989

**Q.** Which switch fluorescence ratio does the source give for TTGTTGTTC here?
**A.** 0.972

**Q.** Which switch fluorescence ratio does the source give for AGCTCCGTCG here?
**A.** 1.08

**Q.** How did the switch fluorescence ratio turn out when ACCAGTGTTG was run?
**A.** 1.02

**Q.** Which switch fluorescence ratio does the source give for CATTCAGGTA here?
**A.** 1

**Q.** CCGGATTGCT was tested. Which switch fluorescence ratio did it give?
**A.** 1.19

**Q.** ATACCACTGA was tested. Which switch fluorescence ratio did it give?
**A.** 1.04

**Q.** With CGGGGTAAAA as the sequence, how does the switch fluorescence ratio read?
**A.** 0.993

**Q.** How did the switch fluorescence ratio turn out when TTTTGATACC was run?
**A.** 1.05

**Q.** Which switch fluorescence ratio does the source give for ACGTGGGCGC here?
**A.** 0.994

**Q.** Which switch fluorescence ratio does the source give for AGACTAAATC here?
**A.** 1.01

**Q.** CCGAAAAGTC was tested. Which switch fluorescence ratio did it give?
**A.** 1.15

**Q.** How did the switch fluorescence ratio turn out when GAGTAACTGA was run?
**A.** 1.01

**Q.** With CTTAAAACAA as the sequence, how does the switch fluorescence ratio read?
**A.** 1.03

**Q.** AGCCAAGTTG was tested. Which switch fluorescence ratio did it give?
**A.** 1.04

**Q.** Which switch fluorescence ratio does the source give for GCGAGACT here?
**A.** 1.17

**Q.** For GGAGGGAATT, which switch fluorescence ratio is on record?
**A.** 1

**Q.** For TGCTAATGTA, which switch fluorescence ratio is on record?
**A.** 1.06

**Q.** How did the switch fluorescence ratio turn out when TGCCAACATG was run?
**A.** 0.968

**Q.** ATCTGTTTAC was tested. Which switch fluorescence ratio did it give?
**A.** 0.992

**Q.** With CGAAGGTACG as the sequence, how does the switch fluorescence ratio read?
**A.** 0.945

**Q.** For GTCTATGGGG, which switch fluorescence ratio is on record?
**A.** 0.986

**Q.** For CAATGTGACA, which switch fluorescence ratio is on record?
**A.** 0.985

**Q.** How did the switch fluorescence ratio turn out when AATCGTTGAT was run?
**A.** 0.968

**Q.** Which switch fluorescence ratio does the source give for AAACGTGTTA here?
**A.** 1.03

**Q.** With TTAAGACTTA as the sequence, how does the switch fluorescence ratio read?
**A.** 1.01

**Q.** How did the switch fluorescence ratio turn out when TTGAAACTAA was run?
**A.** 1.07

**Q.** For GCCGATTATG, which switch fluorescence ratio is on record?
**A.** 1.03

**Q.** Which switch fluorescence ratio does the source give for CAGACATCCA here?
**A.** 1

**Q.** TGTGCCGTAT was tested. Which switch fluorescence ratio did it give?
**A.** 1.05

**Q.** Which switch fluorescence ratio does the source give for GTATTTAATC here?
**A.** 1.02

**Q.** For CTGTACGCG, which switch fluorescence ratio is on record?
**A.** 0.969

**Q.** For TGCAGCGGCC, which switch fluorescence ratio is on record?
**A.** 1.01

**Q.** How did the switch fluorescence ratio turn out when AAACAAACGC was run?
**A.** 1.1

**Q.** Which switch fluorescence ratio does the source give for TTAATTCGAT here?
**A.** 1.04

**Q.** How did the switch fluorescence ratio turn out when ACTGGGGTAA was run?
**A.** 1

**Q.** With GCACGATTAT as the sequence, how does the switch fluorescence ratio read?
**A.** 1.05

**Q.** ACTCTGGCAC was tested. Which switch fluorescence ratio did it give?
**A.** 2.9

**Q.** TGTATGAGGA was tested. Which switch fluorescence ratio did it give?
**A.** 1.01

**Q.** Which switch fluorescence ratio does the source give for CTAAGAAGGC here?
**A.** 1.74

**Q.** AAAATATGGC was tested. Which switch fluorescence ratio did it give?
**A.** 1.17

**Q.** How did the switch fluorescence ratio turn out when TGGGAGGCAG was run?
**A.** 1.02

**Q.** GTACCCGTTG was tested. Which switch fluorescence ratio did it give?
**A.** 1.02

**Q.** Which switch fluorescence ratio does the source give for AGTGTTAGAA here?
**A.** 1

**Q.** AGCTGAGCGT was tested. Which switch fluorescence ratio did it give?
**A.** 1.05

**Q.** For ACCCGGGCAT, which switch fluorescence ratio is on record?
**A.** 1.09

**Q.** For CATCCCCGCG, which switch fluorescence ratio is on record?
**A.** 1.89

**Q.** How did the switch fluorescence ratio turn out when CGCCTAGGGG was run?
**A.** 1.55

**Q.** CGCGCAGTG was tested. Which switch fluorescence ratio did it give?
**A.** 1.07

**Q.** How did the switch fluorescence ratio turn out when ATTTCCCCTT was run?
**A.** 1.06

**Q.** How did the switch fluorescence ratio turn out when AGAGATTTCG was run?
**A.** 1.02

**Q.** With GCATAGTGCC as the sequence, how does the switch fluorescence ratio read?
**A.** 0.984

**Q.** For CCGGTGGTGG, which switch fluorescence ratio is on record?
**A.** 0.95

**Q.** For ACAGCGTTTT, which switch fluorescence ratio is on record?
**A.** 1.02

**Q.** With ATCGGTCTCG as the sequence, how does the switch fluorescence ratio read?
**A.** 0.934

**Q.** TTAGTTCTTT was tested. Which switch fluorescence ratio did it give?
**A.** 1.03

**Q.** Which switch fluorescence ratio does the source give for TCCCGTGATT here?
**A.** 0.98

**Q.** How did the switch fluorescence ratio turn out when AGAGGGTATA was run?
**A.** 0.963

**Q.** How did the switch fluorescence ratio turn out when CCTAGATCGG was run?
**A.** 0.974

**Q.** How did the switch fluorescence ratio turn out when GTCTCAGGA was run?
**A.** 1.01

**Q.** For TATCTTCAAC, which switch fluorescence ratio is on record?
**A.** 1.04

**Q.** TAGTATGATG was tested. Which switch fluorescence ratio did it give?
**A.** 0.968

**Q.** With ATTAGTCACT as the sequence, how does the switch fluorescence ratio read?
**A.** 1.02

**Q.** With TTAGTAGGTT as the sequence, how does the switch fluorescence ratio read?
**A.** 0.983

**Q.** How did the switch fluorescence ratio turn out when TTCGAGCAGG was run?
**A.** 1.14

**Q.** How did the switch fluorescence ratio turn out when TTAGTCTTTA was run?
**A.** 0.991

**Q.** Which switch fluorescence ratio does the source give for GATCGGCACG here?
**A.** 1.02

**Q.** With CAGTTGCATC as the sequence, how does the switch fluorescence ratio read?
**A.** 1.02

**Q.** With TTGTGTAACG as the sequence, how does the switch fluorescence ratio read?
**A.** 0.974
